ChEMBL document CHEMBL4888484, “Replenishing the malaria drug discovery pipeline: Screening and hit evaluation of the MMV Hit Generation Library 1 (HGL1) against asexual blood stage Plasmodium falciparum ,using a nano luciferase reporter read-out” (2022)
Among all 150,000 compounds or so, about 540 (0.36%) showed an effect of 50% or more. The list shows a part of the results.

Each molecule was assayed on Plasmodium falciparum (assay: Primary screen in NF54 nanoGlo assay, in single point, at 2uM, 72h; a lower Z score goes with more inhibition). Conditions: timepoint 72 hour.
Format: functional, Erythrocyte

SMILES | % Inhibition | Z score
Cc1cccnc1Cn1ccc(-c2ccc(CN3CCC(F)CC3)s2)n1 | 1% | -0.19
CC(C)(C)NC(=O)N[C@H]1COc2c1ccc(Cl)c2Cl | 35% | -5.13
O=C(O)c1n[nH]cc1CN1CCCN(CCCc2ccccc2)CC1 | -1% | 0.15
O=C([C@@H]1CCCCO1)N(Cc1cncs1)Cc1cncs1 | 7% | -1
Cc1nnccc1C(=O)NC(C)(C)c1cn(C(C)C)nn1 | -11% | 1.76
Cc1nccc(N2CC[C@H]3[C@H](CCC(=O)N3CCCn3ccnc3)C2)n1 | -9% | 1.68
COC[C@@H]1CN(C(=O)c2ccccc2OC)C[C@H]1c1ccccn1 | -17% | 2.84
Cc1cc(C)n(CCN(C)CCc2csc(C)n2)n1 | -11% | 1.26
Nc1c(-c2ccncc2)nsc1C(=O)NCCc1cccs1 | -4% | 0.38
CCc1noc2nc(C)nc(NCCc3ccc(C)cc3)c12 | -10% | 1.12
O=C1N[C@H]2CCN(C(=O)c3c[nH]c(C(F)(F)F)c3)C[C@@H]2CO1 | -5% | 0.72
CCN(CC(=O)Nc1cc(C)ccc1OC)C1CN(C(=O)OC(C)(C)C)C1 | -1% | 0.18
CC(NC1CCCS(=O)(=O)CC1)C(c1ccccc1)N(C)C (configuration not stated) | -6% | 0.6
O=C(Oc1ccc2c(c1)OCO2)C1CCN(S(=O)(=O)c2ccc3c(c2)CCC3)CC1 | 6% | -0.8
Cc1ccc(C)c(Cn2c(C(=O)Nc3ccccc3)cc3cc(NC(=O)c4ccco4)ccc32)c1 | 2% | -0.19
C=CCn1c(=O)sc2cc(NC(=O)Cc3cccc(F)c3)ccc21 | -11% | 1.4
CCOC(=O)N1CCN(C(=O)c2cc(N(C)S(=O)(=O)c3ccccc3)ccn2)CC1 | 1% | -0.08
O=C(c1ccccc1)N1CCN(C(=O)c2ccccc2-c2nc3ccccc3s2)CC1 | -8% | 1.1
CC(C)Oc1cccnc1C(=O)OCc1ncc(C(C)(C)C)o1 | -3% | 0.46
CCOCCN1CCN(C(=O)Nc2ccc(F)cn2)C[C@@H]1CC | -7% | 0.77
Cn1nccc1CCNC(=O)NCCc1cc(F)c(F)c(F)c1 | -5% | 0.55
Cc1c(S(=O)(=O)N2C[C@]3(C)CC[C@@H](C3)C2(C)C)cnn1C | -11% | 1.5

SMILES | % Inhibition | Z score
O=C(c1ncccn1)N1CCC(Oc2ccncc2Cl)CC1 | 1% | -0.26
CCCc1nnsc1C(=O)N1[C@@H]2CC[C@H]1CN(C)CC2 | -1% | 0.23
CCc1noc(C)c1NC(=O)NC[C@@H]1C[C@H]1c1ccccc1 | 3% | -0.39
O=C(Cn1nnc(-c2ccco2)n1)NCCc1ccc(F)cc1 | -3% | 0.39
Clc1ccccc1COc1ccc(CNC2CCCCC2)cc1 | 33% | -4.73
COc1ccc(OC)c(S(=O)(=O)n2cnnc2)c1 | -8% | 0.92
O=C(c1cccc(Br)c1)N1CCN(c2nnc3ccccn23)CC1 | 28% | -3.15
CC(C)N(CC(=O)Nc1nc(-c2ccccc2)cn1-c1ccc(F)c(Cl)c1)C(=O)c1ccco1 | -7% | 0.98
CCOC(=O)C1CCN(C(=O)c2snc3c(=O)n(C(C)C)c(=O)[nH]c23)CC1 | -10% | 1.6
CC(C)[C@H]1C(=O)N(C)CCN1C(=O)Nc1ccccc1Oc1ccccc1F | -6% | 0.99
Cc1cc(S(=O)(=O)NCCc2cnoc2)c(C)o1 | 2% | -0.33
Cc1nc2n(c1CN1CCN(C(=O)COC3CCCCC3)CC1)CCCC2 | -9% | 1.15
CC(C)(C)NC(=O)NCc1nccn1CCCc1ccccc1 | -5% | 0.64
CC(C)Cn1ccc2c(cc(C(=O)Nc3ccccc3F)n2C)c1=O | -3% | 0.49
COc1ccc(NC(=O)c2cc(C#N)c3c4ccccc4ccn23)cc1 | -5% | 0.7
CCc1nnc(CNC(=O)c2cc(=O)cc(C)[nH]2)s1 | -21% | 2.08
Cc1nnsc1CON=C(N)Cc1ccccc1 | -11% | 1.48
Cc1nn(C)cc1-c1csc(NCCc2ccccn2)n1 | 0% | 0.03
CCCCc1nc(CN(C)CC2(CO)CCC2)c[nH]1 | 0% | -0.07
Cc1cc(NC(=O)Cc2c(C)noc2C)sn1 | -1% | 0.22
COCCN(CCC(=O)O)C(=O)c1cc(Br)ccc1Cl | -4% | 0.53
Cc1cc(OCCC(C)(C)O)ccc1C#N | -12% | 2.32

SMILES | % Inhibition | Z score
CN1CCOCC1C(=O)NCC(O)c1ccc(-c2ccccc2)cc1 (configuration not stated) | -9% | 0.76
COc1ccccc1C1(CNS(=O)(=O)c2c(C)noc2C)CCOCC1 | 1% | -0.23
Cc1ccccc1-c1noc(CN2CCC[C@@H]2Cn2cncn2)n1 | -8% | 0.8
CN1CCC[C@H](CN(C)C(=O)c2cc(C(C)(C)C)nc(=O)[nH]2)C1 | -10% | 1.6
CC(C)(C)NC(=O)NCc1ccc(-c2ccoc2)o1 | 9% | -1.3
Cc1c(-c2cc(CN3CCS(=O)(=O)c4ccccc4C3)on2)cnn1C | -7% | 1.12
Cc1cc(C#N)cc(N[C@@H]2C[C@@H](C)Oc3ccccc32)n1 | 12% | -2.08
Cc1cc(NC(=O)NCCN2CCCCC2)no1 | 5% | -0.88
COCCN(C)c1cc(C2CN(C(=O)OC(C)(C)C)C2)ncn1 | -10% | 1.83
CC[C@@H](c1cccnc1)N(C)C(=O)c1ccc(N2CC(=O)NC2=O)cc1 | 1% | -0.15
Cc1ccc(NC(=O)CCOC2CCOCC2)c(O)n1 | -15% | 2.87
Cc1ccc(-n2cc(C)cn2)c(NC(=O)N2CCC(OC[C@H]3CCCO3)CC2)c1 | 4% | -0.53
Cc1cnc(C)c(N[C@H]2CCCCNC2=O)n1 | -5% | 1.02
Cc1noc(C)c1C(=O)N[C@H]1CCOc2ccccc21 | -15% | 2.08
Cn1cnc(C(=O)N2CC[C@@H]3OCc4cccc(c4)Oc4ccc(cc4)CCC(=O)N(CCCO)CC(=O)N[C@H]3C2)c1 | -20% | 3.74
O=C(Cc1cccc(C(F)(F)F)n1)N1CCC[C@@H]1Cn1cncn1 | 2% | -0.28
O=S(=O)(CCC(F)(F)F)N1CCCC[C@H](c2ccccc2)C1 | 18% | -2.33
Cc1cnn(C2CCCC2)c1NC(=O)c1ccc(C(=O)N2CCOCC2)cc1 | -4% | 0.72
COc1nccnc1NCC1(N(C)C)CCCCC1 | 2% | -0.41
CS(=O)(=O)c1cccc(-c2nnc(N3CCOCC3)[nH]2)c1 | -11% | 1.38
Cc1noc(C)c1S(=O)(=O)N1C[C@H]2CCCC(=O)N(Cc3cccc(F)c3)[C@H]2C1 | 34% | -3.85
CC(C)[C@@H](N)C(=O)Nc1cnc2c(c1)CCCC2 | -8% | 1.15

SMILES | % Inhibition | Z score
O=C(NCCn1ccc(-c2cnccn2)n1)c1ccc(S(=O)(=O)N2CCOCC2)cc1 | 13% | -1.62
C[C@@H](C(=O)NCCC1=CCCCC1)N(C)Cc1nc2ccccc2s1 | -5% | 0.54
Brc1ccccc1-n1nncc1-c1nc(-c2cnccn2)no1 | -17% | 2.02
CCc1ncnc(NCCC2CCN(C3CCCC3)CC2)c1F | -9% | 1.12
O=C(C1CCCCC1)N1CCc2ccccc2[C@@H]1c1ccc(F)cc1 | 10% | -1.42
O=S1(=O)C=C[C@@H](NCc2ccccc2)C1 | -3% | 0.28
O=S(=O)(CC12CCC(CC1)CC2)N1CCC2(COC2)C1 | -10% | 0.97
COCC(O)CN1CCCC1c1nncn1CC(C)C (configuration not stated) | -5% | 0.65
O=C(c1cc2ccccc2o1)[C@@H]1[C@@H]2CCCN2[C@]2(C(=O)Nc3ccc(Cl)cc32)[C@@]12C(=O)Nc1ccccc12 | 1% | -0.17
N#Cc1c(C2CCNCC2)cc(-c2ccc(F)cc2C(F)(F)F)nc1N | 8% | -1.58
O=C1CC2CCC(C1)N2C(=O)CCn1nnc2ccccc2c1=O | 28% | -3.19
Cc1nc([C@H]2C[C@H](NC(=O)c3cnc(N)nc3C(F)(F)F)C2)cc(=O)[nH]1 | -4% | 0.73
CC[C@@H](Cc1ccccc1Br)N(C)C(=O)CNC(N)=O | -7% | 0.93
CCOC(=O)Nc1nc2c(s1)CN(C(=O)[C@@H]1CC=CCC1)CC2 | -6% | 1.2
O=C(NCc1ccc(F)cc1)c1nc2n(n1)-c1ccccc1S(=O)(=O)N2 | -6% | 1.06
CCCCS(=O)(=O)N1C[C@H]2CCC(=O)c3cccc1c32 | -9% | 1.63
COc1ccc(CCC(=O)N2CCC[C@H](COCc3ccccc3)C2)cc1 | -7% | 1.33
O=C(NC(COc1ccccc1F)c1ccccc1)C1CCNC1 (configuration not stated) | 4% | -0.75
CC1(C)C[C@@H](C(=O)N2CCn3c(C(N)=O)cnc3C2)CCO1 | -20% | 1.88
O=C(CN1CCc2[nH]nc(-c3cccc4ccccc34)c2C1)N1CCCCC1 | 6% | -0.74
